Assay results from PubChem BioAssay AID463173 (ICCB-Longwood Screening Facility, Harvard Medical School, 2010).
In all, about 52,000 compounds went through this assay and about 4,300 (8.3%) were called active. No stated cut-off is given here; in the data, active means survival mostly below about 52% (no sharp cut-off); inactive means mostly above about 56%. This is one part of the list.

Tested on: DeltatarO mutant
Assay: growth inhibition of S. aureus wild type versus tarO mutant, primary screen, teichoic acid synthesis inhibitors, RN4220, OD600 (AID 463173)
Conditions: OD600, 18 h, stronger effect = lower value, screened at 18.75 µg/mL (by protocol)

Row | Compound | survival
1 | O=C(Nc1cc(Cl)cc(Cl)c1)c1ccc(F)c(S(=O)(=O)N2CCCC2)c1 | inactive: 78%
2 | COc1cc(OC)c(C(=O)NCc2nc(-c3ccccc3)no2)cc1OC | active: 41%
3 | CCc1ccc(CN(Cc2ccco2)c2cnc(S(C)(=O)=O)nc2C(=O)Nc2ccc(C)c(Cl)c2)cc1 | inactive: 54%
4 | CCOC(=O)C1CCC(CN(Cc2ccc(OC)cc2)S(=O)(=O)c2ccc(C)cc2)CC1 (stereo unspecified) | inactive: 99%
5 | NNc1ncccc1C(=O)O | inactive: 102%
6 | Cc1ccc(NC(=O)CN(C)S(=O)(=O)c2cccc3cccnc23)c(C)c1 | inactive: 81%
7 | O=C(O)C1C2C3C=CC(C3)C12 (stereo unspecified) | inactive: 64%
8 | O=C(Cn1ncn2c(cc3cc(F)ccc32)c1=O)NC1CCCCC1 | inactive: 79%
9 | COC(=O)c1ccccc1NC(=O)c1cc2ccccn2n1 | inactive: 73%
10 | Cc1oc2c(cc(NS(=O)(=O)c3ccc(Br)cc3)c3ccccc32)c1C(=O)OCc1ccccc1 | inactive: 57%
11 | CN(C)c1ccc(C(=O)Nc2sc(Nc3ccccc3)nc2C(N)=O)cc1 | inactive: 86%
12 | CCCCCn1c(=O)[nH]c2cc(C(=O)N3CCN(c4ccc(OC)cc4)CC3)ccc2c1=O | inactive: 135%
13 | Cc1ccc(C(=O)COC(=O)CCc2nc3ccccc3[nH]c2=O)cc1C | inactive: 94%
14 | COc1ccc(Cn2c(CCC(=O)Nc3ccc(Br)c(C)c3)nc3cccnc32)cc1 | inactive: 71%
15 | CC(C)C(=O)Nc1ccccc1C(=O)OCc1cc(=O)n2nc(C3CC3)sc2n1 | inactive: 85%
16 | Cc1c(Cl)cccc1NC(=O)c1cc(-c2cccc(Cl)c2)on1 | inactive: 61%
17 | O=C(Nc1cccc(Br)c1)Nc1nc2c(s1)CCCCCC2 | inactive: 71%
18 | COc1cc2c(C(=O)N3CCN(c4cccc(Cl)c4)CC3)cn(C)c(=O)c2cc1OC | inactive: 65%
19 | O=C(CN1C(=O)c2cccnc2Oc2ccc(Cl)cc21)NCCCN1CCCCC1 | inactive: 71%
20 | Cc1nn2c(=O)cc(COC(=O)c3ccc(NC(=O)CCc4ccccc4)cc3)nc2s1 | inactive: 67%
21 | CCc1noc(-c2ccc(N3CCC(C)CC3)c([N+](=O)[O-])c2)n1 | inactive: 66%
22 | COc1ccc(CCNC(=O)C(=O)NCC(c2ccco2)S(=O)(=O)c2cccs2)cc1 (stereo unspecified) | inactive: 99%
23 | CCC(Sc1nc2cc3c(cc2c(=O)n1CCCCCC(=O)NCc1ccc2c(c1)OCO2)OCO3)C(=O)NCCCOC (stereo unspecified) | inactive: 83%

Row | Compound | survival
24 | Cc1ccccc1NC(=O)C1CCN(C(=O)c2ccc(F)cc2)CC1 | inactive: 70%
25 | N#C/C(=C\c1ccco1)C(=O)Nn1cnnc1 | inactive: 102%
26 | COc1ccc(-c2nc3ccccc3n2Cc2ccc(C(C)C)cc2)cc1 | active: 4%
27 | CCOc1ccc(NC(=O)Cn2cc(C(=O)c3ccc(F)cc3)c(=O)c3cc4c(cc32)OCO4)cc1 | inactive: 69%
28 | CCOc1ccc2[nH]c(=S)c(C#N)cc2c1 | inactive: 100%
29 | Cc1cccc(-c2nc3cc(NC(=O)c4ccc(OCC(C)C)cc4)ccc3o2)c1 | inactive: 113%
30 | CCOC(=O)N1CCC(NC(=O)c2cnn(-c3ccc(C)cc3)c2-n2cccc2)CC1 | inactive: 69%
31 | COc1ccc(NC(=O)c2cnc(N3CCOCC3)c3ccccc23)cc1OC | inactive: 73%
32 | COc1cccc(CCNC(=O)c2ccc(Cn3c(SCc4ccccc4)nc4cccnc43)cc2)c1 | inactive: 55%
33 | O=C(Nc1ccc2nc(SCCOc3ccccc3)sc2c1)c1ccco1 | inactive: 99%
34 | Cc1cccn2c(=O)c3cc(C(=O)NC(C)C)n(C)c3nc12 | active: 53%
35 | O=C(CCCCCn1c(=O)[nH]c2ccccc2c1=O)NCCc1ccccc1 | inactive: 93%
36 | COc1ccc(Cl)cc1NC(=O)CN(c1cccc(C)c1C)S(C)(=O)=O | inactive: 87%
37 | Cc1cccc(S(=O)(=O)c2cn(Cc3ccc(F)cc3)c3cc(N4CCCCC4)c(F)cc3c2=O)c1 | active: -2%
38 | COc1ccc(CCNC(=O)Cn2c(=O)c3sccc3n(CC(=O)Nc3cccc(C(F)(F)F)c3)c2=O)cc1OC | inactive: 82%
39 | O=C(NCc1cccc(Cl)c1)c1cnc(N2CCCCC2)c2ccccc12 | inactive: 83%
40 | Cc1ccc(-n2ncc(C(=O)NCCc3ccsc3)c2C2CCN(C(=O)OC(C)(C)C)CC2)c(C)c1 | inactive: 69%
41 | COC(=O)c1cccc(Nc2c(-c3ccc(SC)cc3)nc3nc[nH]n23)c1 | inactive: 115%
42 | CCc1ccc(C2N=C(N)Nc3nc4ccccc4n32)cc1 (stereo unspecified) | inactive: 137%
43 | Cc1cccc(N2CCN(c3ncnc4onc(C)c34)CC2)c1C | inactive: 82%
44 | COc1ccc(Cl)cc1NC(=O)C(OC)c1ccccc1 (stereo unspecified) | inactive: 83%
45 | O=c1c(Cl)c(NCc2ccco2)cnn1Cc1ccccc1 | inactive: 99%
46 | COc1ccc(C(=O)Cn2nnc(-c3ccccc3)n2)cc1 | inactive: 73%

Row | Compound | survival
47 | CC1=C(C(=O)Nc2cc(Cl)ccc2C)C(c2ccccc2F)n2ncnc2N1 (stereo unspecified) | inactive: 75%
48 | CN1CCN(C(CNC(=O)C(=O)Nc2ccccc2C#N)c2ccc3c(c2)OCO3)CC1 (stereo unspecified) | inactive: 73%
49 | CCc1ccccc1NC(=O)c1cc(-c2ccc(OC)cc2)on1 | inactive: 62%
50 | COc1ccc(CCNC(=O)CSc2cc(=O)n(C)c3ccccc23)cc1OC | inactive: 95%
51 | CCn1c(=O)c(=O)n(CC)c2cc(N3CCCCC3)c(NC(=O)c3ccc(OC)c(OC)c3)cc21 | inactive: 88%
52 | COc1cc(C(=O)Nc2sc3c(c2C(N)=O)CCC(C)C3)cc(OC)c1OC (stereo unspecified) | inactive: 53%
53 | Cc1ccc2sc(N(CCCN(C)C)C(=O)c3ccco3)nc2c1C | inactive: 128%
54 | COc1cc(C(=O)NN)ccc1-c1ccc(C(=O)NN)cc1 | inactive: 77%
55 | Cc1ccc2c(c1)cc(CN(Cc1ccco1)C(=O)NCc1ccccc1)c1nnnn12 | inactive: 97%
56 | CCc1ccc(CNC(=O)CN2C(=O)CSc3ccc(S(=O)(=O)N4CCOCC4)cc32)cc1 | inactive: 87%
57 | O=C(CSc1nc2c([nH]c3ccccc32)c(=O)n1-c1ccc(Cl)cc1)NCc1ccccc1 | inactive: 67%
58 | COc1ccc(NC(=O)Cn2nnnc2-c2ccccc2F)c(C)c1 | inactive: 74%
59 | CCCNC(=O)C1CCC(Cn2c(=O)c3sccc3n(CC(=O)N(CC)CC)c2=O)CC1 (stereo unspecified) | inactive: 94%
60 | COc1cccc(/C=N/NC(=O)c2ccccc2O)c1 | inactive: 92%
61 | COC(=O)c1ccc(NC(=O)CC2C(=O)N(c3cccc(F)c3)C(=O)N2CC(C)C)cc1 (stereo unspecified) | inactive: 74%
62 | CCCN(CCC)CCNC(=O)CS(=O)Cc1nc(-c2ccc(OC)c(OC)c2)oc1C (stereo unspecified) | inactive: 100%
63 | Cc1ccc(-n2nc(C(=O)N3CCCCC3)c(=O)n(C)c2=O)cc1 | active: 52%
64 | CCOc1ccc(C2c3[nH]c4ccccc4c3CCN2C(=O)CSc2ccccc2)cc1 (stereo unspecified) | inactive: 129%
65 | CN(C(=O)C1CC1)c1nnc(-c2ccc(F)cc2)s1 | inactive: 95%
66 | CCOC(=O)c1cc(NC(=O)c2ccc(C)cc2)c(=O)n2c1oc1ccccc12 | inactive: 52%
67 | CCOc1cc(CNCCSc2nnnn2C)ccc1OCc1ccc(Cl)cc1Cl | active: -6%
68 | Cc1ccc(NC(=O)CN2C(=O)COc3ccc(S(=O)(=O)N4CCCCC4)cc32)cc1Cl | inactive: 82%
69 | COCCCNC(=O)Cn1c(=O)n(-c2ccccc2)c(=O)c2c1c1cc(OC)ccc1n2C | inactive: 61%

Row | Compound | survival
70 | COc1ccc(CN2C(=O)N(c3cccc(C)c3)C(=O)C2CC(=O)Nc2ccc(F)cc2)cc1OC (stereo unspecified) | inactive: 67%
71 | CC(=O)Nc1ccc(S(=O)(=O)N2CCC(C)CC2)cc1 | inactive: 96%
72 | CN(Cc1ccccc1)C(=O)C(=O)Nc1ccc2nc3n(c(=O)c2c1)CCCCC3 | inactive: 82%
73 | COc1cccc(C(=O)Nc2nc3c(s2)CCCC3)c1 | inactive: 87%
74 | COc1ccc(-n2c(=O)c3ccc(C(=O)NCc4ccc(C)cc4)cc3n(CC(=O)Nc3cccc(F)c3)c2=O)cc1 | inactive: 79%
75 | Cc1ccc(CNC(=O)c2cc3cc(C)ccc3n2C)cc1 | inactive: 62%
76 | CNc1ccc(-c2nc(-c3ccccn3)no2)cc1[N+](=O)[O-] | inactive: 52%
77 | Cc1cc(NC(=O)c2ccc(-c3ccc(Br)cc3)o2)cc(-c2nc3ncccc3o2)c1O | inactive: 73%
78 | Cc1ccc2nc(Cl)c3cc(C(=O)NCCCN4CCC(C)CC4)sc3c2c1 | inactive: 125%
79 | O=C(Nc1ccccc1)c1ccco1 | inactive: 77%
80 | Cc1ccc(C)c(S(=O)(=O)c2nnn3c2nc(NCc2cccs2)c2sccc23)c1 | inactive: 46%
81 | COc1ccc(NC(=O)Cc2csc(COc3cccc(C)c3)n2)cc1OC | inactive: 72%
82 | COc1ccc(N2CC(NC(=O)c3ccc4c(c3)OCO4)CC2=O)cc1OC (stereo unspecified) | inactive: 71%
83 | CCc1ccc(-n2c(SCC(=O)NC(C)CC)nc3n[nH]c(C)c3c2=N)cc1 (stereo unspecified) | inactive: 122%
84 | COc1ccc2c(c1)c1c(c(=O)n(-c3ccccc3)c(=O)n1CC(=O)Nc1ccc(F)cc1)n2C | inactive: 84%
85 | Fc1cccc(Cl)c1CNc1n[nH]c(-c2ccco2)n1 | inactive: 76%
86 | Cc1ccc(Cl)cc1N1CCN(C(=O)c2cccn2-c2nnc(N3CCCCC3)s2)CC1 | inactive: 69%
87 | Cc1csc(NC(=O)/C=C\C(=O)O)n1 | inactive: 100%
88 | CC1C(=O)Nc2ccc(S(=O)(=O)Nc3ccccc3Br)cc2NC1=O (stereo unspecified) | inactive: 90%
89 | CC(C)CCNC(=O)c1ccc(Cn2c(SCC(=O)NC(C)C)nc3ccccc3c2=O)cc1 | inactive: 144%
90 | CCn1c(=O)c2c(n3c(=S)[nH]nc13)-c1ccccc1CC21CCCCC1 | inactive: 59%
91 | CCCSC1=NC2(CCN(C(=O)NC3CCCCC3)CC2)N=C1c1ccccc1 | inactive: 85%
